# Some of the results follow.
# B1: PLU (Photorhabdus luminiscence) (protein)
# chain: HHHHHHENLYFQSSIVFASIDPRSNPLQTSSQNYVDIPGLKLDVSKYSNSPCLTALITLNIPTPYASGNNFPGGNFAIVTDQGEQLAYGGFTYSSKIPENSGRMPFTLVARYSLASNVSTIKAQWSNIRGSTVHIDSYASISAVIQCNQLV
# Experiments:
# Experiment in all cases: glycan array binding signal (z-score within array); higher = stronger binding
# Details in all cases: glycan notation: IUPAC condensed, linker removed
# Gal3S(b1-4)Glc = biological target: Gal3S(b1-4)Glc
# In short: (§1)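 Glycan array data came from 3228 arrays in the Consortium for Functional Glycomics database, and only arrays with an available protein sequence were kept. Glycan names were put into IUPAC-condensed notation, and columns mapping to the same glycan were averaged. The binding signal is a within-array Z-score, averaged across arrays of one protein sequence run at different concentrations or buffers and across linkers. A negative Z-score can be read as non-binding.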
# Gal3S(b1-4)Glc6S = biological target: Gal3S(b1-4)Glc6S
# In short: as §1
# Gal3S(b1-4)GlcNAc = biological target: Gal3S(b1-4)GlcNAc
# In short: as §1
# [1] = biological target: Gal3S(b1-4)[Fuc(a1-3)]Glc6S
# In short: as §1
# [2] = biological target: Gal3S(b1-4)[Fuc(a1-3)]GlcNAc
# In short: as §1
# [3] = biological target: Gal3S(b1-4)[Fuc(a1-3)]GlcNAc6S
# In short: as §1
# Gal3S4S(b1-4)GlcNAc = biological target: Gal3S4S(b1-4)GlcNAc
# In short: as §1
# Gal3S6S(b1-4)GlcNAc = biological target: Gal3S6S(b1-4)GlcNAc
# In short: as §1
# Gal3S6S(b1-4)GlcNAc6S = biological target: Gal3S6S(b1-4)GlcNAc6S
# In short: as §1
# Gal4S(b1-4)GlcNAc = biological target: Gal4S(b1-4)GlcNAc
# In short: as §1
# Gal4S6S(b1-4)GlcNAc = biological target: Gal4S6S(b1-4)GlcNAc
# In short: as §1
# Gal6P(b1-4)GlcNAc = biological target: Gal6P(b1-4)GlcNAc
# In short: as §1
# Gal6S(b1-3)GlcNAc = biological target: Gal6S(b1-3)GlcNAc
# In short: as §1
# Gal6S(b1-3)GlcNAc6S = biological target: Gal6S(b1-3)GlcNAc6S
# In short: as §1
# Gal6S(b1-4)Glc = biological target: Gal6S(b1-4)Glc
# In short: as §1
# Gal6S(b1-4)Glc6S = biological target: Gal6S(b1-4)Glc6S
# In short: as §1
# Gal6S(b1-4)GlcNAc = biological target: Gal6S(b1-4)GlcNAc
# In short: as §1
# Gal6S(b1-4)GlcNAc6S = biological target: Gal6S(b1-4)GlcNAc6S
# In short: as §1
# GalNAc(a1-3)Gal = biological target: GalNAc(a1-3)Gal
# In short: as §1
# GalNAc(a1-3)GalNAc = biological target: GalNAc(a1-3)GalNAc
# In short: as §1
# [4] = biological target: GalNAc(a1-3)GalNAc(b1-3)Gal(a1-4)Gal(b1-4)Glc
# In short: as §1
# [5] = biological target: GalNAc(a1-3)GalNAc(b1-3)Gal(a1-4)Gal(b1-4)GlcNAc
# In short: as §1
# GalNAc(b1-3)Gal = biological target: GalNAc(b1-3)Gal
# In short: as §1
# [6] = biological target: GalNAc(b1-3)Gal(a1-4)Gal(b1-4)GlcNAc
# In short: as §1
# [7] = biological target: GalNAc(b1-3)Gal(a1-4)Gal(b1-4)GlcNAc(b1-3)Gal(b1-4)Glc
# In short: as §1
# [8] = biological target: GalNAc(b1-3)Gal(a1-6)Gal(b1-4)Glc
# In short: as §1
# GalNAc(b1-3)GalNAc = biological target: GalNAc(b1-3)GalNAc
# In short: as §1
# GalNAc(b1-3)GlcNAc = biological target: GalNAc(b1-3)GlcNAc
# In short: as §1
# GalNAc(b1-4)Gal(b1-4)Glc = biological target: GalNAc(b1-4)Gal(b1-4)Glc
# In short: as §1
# GalNAc(b1-4)GlcNAc = biological target: GalNAc(b1-4)GlcNAc
# In short: as §1
# [9] = biological target: GalNAc(b1-4)GlcNAc(b1-2)Man
# In short: as §1
# [10] = biological target: GalNAc(b1-4)GlcNAc(b1-2)Man(a1-3)[GalNAc(b1-4)GlcNAc(b1-2)Man(a1-6)]Man(b1-4)GlcNAc(b1-4)GlcNAc
# In short: as §1
# [11] = biological target: GalNAc(b1-4)GlcNAc(b1-3)GalNAc(b1-4)GlcNAc
# In short: as §1
# GalNAc(b1-4)GlcNAc6S = biological target: GalNAc(b1-4)GlcNAc6S
# In short: as §1
# GalNAc(b1-6)GalNAc = biological target: GalNAc(b1-6)GalNAc
# In short: as §1
# GalNAc3S(b1-4)GlcNAc = biological target: GalNAc3S(b1-4)GlcNAc
# In short: as §1
# GalNAc3S(b1-4)GlcNAc3S = biological target: GalNAc3S(b1-4)GlcNAc3S
# In short: as §1
# [12] = biological target: GalNAc3S(b1-4)[Fuc(a1-3)]GlcNAc
# In short: as §1
# GalNAc4S6S(b1-4)GlcNAc = biological target: GalNAc4S6S(b1-4)GlcNAc
# In short: as §1
# GalNAc6S(b1-4)GlcNAc = biological target: GalNAc6S(b1-4)GlcNAc
# In short: as §1
# Glc(a1-4)Glc = biological target: Glc(a1-4)Glc
# In short: as §1
# [13] = biological target: Glc(a1-4)Glc(a1-4)Glc(a1-4)Glc
# In short: as §1
# Glc(a1-6)Glc(a1-6)Glc = biological target: Glc(a1-6)Glc(a1-6)Glc
# In short: as §1
# [14] = biological target: Glc(a1-6)Glc(a1-6)Glc(a1-6)Glc
# In short: as §1
# Glc(b1-4)Glc = biological target: Glc(b1-4)Glc
# In short: as §1
binder,measurement,setting,value
B1,glycan array binding signal (z-score),Gal3S(b1-4)Glc,-0.316
same,glycan array binding signal (z-score),Gal3S(b1-4)Glc6S,-0.352
same,glycan array binding signal (z-score),Gal3S(b1-4)GlcNAc,-0.221
same,glycan array binding signal (z-score),[1],-0.317
same,glycan array binding signal (z-score),[2],-0.272
same,glycan array binding signal (z-score),[3],-0.233
same,glycan array binding signal (z-score),Gal3S4S(b1-4)GlcNAc,-0.346
same,glycan array binding signal (z-score),Gal3S6S(b1-4)GlcNAc,-0.276
same,glycan array binding signal (z-score),Gal3S6S(b1-4)GlcNAc6S,-0.195
same,glycan array binding signal (z-score),Gal4S(b1-4)GlcNAc,-0.274
same,glycan array binding signal (z-score),Gal4S6S(b1-4)GlcNAc,-0.277
same,glycan array binding signal (z-score),Gal6P(b1-4)GlcNAc,-0.374
same,glycan array binding signal (z-score),Gal6S(b1-3)GlcNAc,-0.249
same,glycan array binding signal (z-score),Gal6S(b1-3)GlcNAc6S,-0.322
same,glycan array binding signal (z-score),Gal6S(b1-4)Glc,-0.291
same,glycan array binding signal (z-score),Gal6S(b1-4)Glc6S,-0.284
same,glycan array binding signal (z-score),Gal6S(b1-4)GlcNAc,-0.224
same,glycan array binding signal (z-score),Gal6S(b1-4)GlcNAc6S,-0.355
same,glycan array binding signal (z-score),GalNAc(a1-3)Gal,-0.351
same,glycan array binding signal (z-score),GalNAc(a1-3)GalNAc,-0.149
same,glycan array binding signal (z-score),[4],-0.313
same,glycan array binding signal (z-score),[5],-0.271
same,glycan array binding signal (z-score),GalNAc(b1-3)Gal,-0.24
same,glycan array binding signal (z-score),[6],-0.301
same,glycan array binding signal (z-score),[7],-0.246
same,glycan array binding signal (z-score),[8],-0.329
same,glycan array binding signal (z-score),GalNAc(b1-3)GalNAc,-0.244
same,glycan array binding signal (z-score),GalNAc(b1-3)GlcNAc,-0.382
same,glycan array binding signal (z-score),GalNAc(b1-4)Gal(b1-4)Glc,-0.36
same,glycan array binding signal (z-score),GalNAc(b1-4)GlcNAc,-0.287
same,glycan array binding signal (z-score),[9],-0.29
same,glycan array binding signal (z-score),[10],-0.358
same,glycan array binding signal (z-score),[11],-0.3
same,glycan array binding signal (z-score),GalNAc(b1-4)GlcNAc6S,-0.287
same,glycan array binding signal (z-score),GalNAc(b1-6)GalNAc,-0.216
same,glycan array binding signal (z-score),GalNAc3S(b1-4)GlcNAc,-0.222
same,glycan array binding signal (z-score),GalNAc3S(b1-4)GlcNAc3S,-0.238
same,glycan array binding signal (z-score),[12],-0.132
same,glycan array binding signal (z-score),GalNAc4S6S(b1-4)GlcNAc,-0.267
same,glycan array binding signal (z-score),GalNAc6S(b1-4)GlcNAc,-0.332
same,glycan array binding signal (z-score),Glc(a1-4)Glc,-0.232
same,glycan array binding signal (z-score),[13],-0.276
same,glycan array binding signal (z-score),Glc(a1-6)Glc(a1-6)Glc,-0.299
same,glycan array binding signal (z-score),[14],-0.248
same,glycan array binding signal (z-score),Glc(b1-4)Glc,-0.223
